Measurements taken from PubChem BioAssay AID651820 (National Center for Advancing Translational Sciences (NCATS), 2012).
About 12,000 (3.5%) of roughly 340,000 compounds were called active. The shares of active, inactive and inconclusive entries below differ from those in the screen. Calls follow the shape of the dose curve; as a rule, active = well fitted inhibition curve with a large enough effect; inconclusive = small, poorly fitted or top-dose-only effect, or another doubt; inactive = no such curve, though single readings can be large or run the other way. No potency is given beside an inconclusive call; the fits are too rough.

test: qHTS Assay for Inhibitors of Hepatitis C Virus (HCV); settings: Huh7.5.1 HCVcc-Cre (HCVcc is cell-culture hepatitis C virus) infection, luciferase reporter, 44 h; series mostly up to 41.8 µM
Summary of the method: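 Antiviral activity was scored by luciferase reporter output from cells infected with HCVcc-Cre (~0.5 moi) in presence of compound, 44 h infection period, cells seeded 1,000/well 4 h prior.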
Potency is read from the fitted curve at half-maximal effect; tags tell the direction and shape of the fitted curve.

Row | Compound | Potency
1 | N/C(Cc1ccc(Cl)cc1)=N\OC(=O)Cc1ccc([N+](=O)[O-])cc1 | inactive
2 | COc1ccc(-c2cc(C(=O)NCC(c3ccccc3)N(C)C)c3ccccc3n2)cc1OC (stereo not given) | inconclusive [inhibitor, partial curve]
3 | CS(=O)(=O)c1ccc(Cl)c(NC(=O)c2cc(S(=O)(=O)N3CCOCC3)ccc2N2CCCC2)c1 | inactive
4 | Cc1ccc(Cl)c(OCC(=O)Nc2ccccc2C(=O)NC2CC2)c1 | inactive
5 | CCOC(=O)c1c(C)nc(C)c(C(=O)OCC)c1-c1cccnc1 | inactive
6 | Cc1ccc(C(=O)N/C(=C\c2cccs2)C(=O)NCCCN2CCOCC2)cc1 | inconclusive [inhibitor, single point]
7 | CCOc1ccc(-c2ncncc2-c2ccc(OC)c(OC)c2)c(O)c1 | inactive
8 | COc1ccc(-n2nnnc2SCC(=O)Nc2ccc3c(c2)OCCO3)cc1OC | inconclusive [inhibitor, single point]
9 | O=C(Nc1ccc(Cl)cc1)N1CCSc2ccccc21 | inconclusive [inhibitor, full curve, poor fit]
10 | COc1ccccc1C(=O)Nc1ccc2nc(SCC(=O)N(C)C)sc2c1 | inactive
11 | O=C(C1CC(=O)N(C2CCCCC2)C1)N1CCN(c2cccc(C(F)(F)F)c2)CC1 (stereo not given) | inconclusive [inhibitor, partial curve]
12 | c1ccc(C2c3c(ccc4ccccc34)Oc3ncn4nc(-c5ccco5)nc4c32)cc1 (stereo not given) | inconclusive [inhibitor, full curve, poor fit]
13 | Cc1c(C)c2c(OCC(=O)NCc3ccncc3)cc3c(c2oc1=O)CCC(C)(C)O3 | inactive
14 | Cc1ccc(NS(=O)(=O)c2cc(C(=O)NCCCN(C)C)ccc2Cl)cc1Cl | inconclusive [inhibitor, partial curve]
15 | CCC1CCCCN1S(=O)(=O)c1ccc(C(=O)Nc2nnc(C3CC3)o2)cc1 (stereo not given) | inconclusive [inhibitor, single point]
16 | COc1ccc(OC)c(C(=O)c2ccc(C(=O)Nc3ccc4ccccc4c3)cc2)c1 | inconclusive [inhibitor, full curve]
17 | NC(=O)CC(NC(=O)c1ccc(Br)cc1)c1ccc(N2CCC(Br)CC2)c([N+](=O)[O-])c1 (stereo not given) | inconclusive [inhibitor, single point]
18 | CCN(c1ccccc1)S(=O)(=O)c1ccc(C(=O)Nc2cccc(C)n2)cc1 | active: 11.2 µM
19 | OCCC#Cc1ccc(CN2CCN(CCc3ccccc3)C(CCO)C2)cc1 (stereo not given) | inactive
20 | O=C(O)Cn1nnc2ccccc21 | inactive
21 | O=C(CSc1ncn[nH]1)NCCc1ccc(Cl)cc1Cl | inactive
22 | O=C(Cc1ccc(Br)cc1)Nc1ccc2[nH]ncc2c1 | inactive
23 | O=C(NCCc1ccc2c(c1)OCCO2)c1cccc(S(=O)(=O)N2CCCC2)c1 | inconclusive [inhibitor, single point]

Row | Compound | Potency
24 | CCc1cc2cc(C)cc(C)c2nc1SCC(=O)N1CCN(C(=O)c2ccco2)CC1 | inconclusive [inhibitor, single point]
25 | CC(Cc1ccc(O)c(O)c1)C(C)Cc1ccc(O)c(O)c1 (stereo not given) | active: 10 µM
26 | COc1cc(CNc2cccc(F)c2)cc(Br)c1O | inconclusive [inhibitor, partial curve, poor fit]
27 | CCN(CC)S(=O)(=O)c1cccc(C(=O)Nc2nc3cc4c(cc3s2)OCCO4)c1 | active: 2.24 µM
28 | COc1ccc(S(=O)(=O)N2CCOCC2)cc1NC(=O)C1CCCCN1S(=O)(=O)c1ccccc1 (stereo not given) | inconclusive [inhibitor, partial curve]
29 | CSc1nnc(Cc2sc(-c3ccccc3)nc2-c2ccccc2)o1 | inconclusive [inhibitor, single point]
30 | CCNc1cccc2c1C(=O)N(C)C2=O | inconclusive [inhibitor, single point]
31 | O=C(N/N=C/c1cccnc1)c1cc2c(ccc3ccccc32)o1 | inconclusive [inhibitor, single point]
32 | CCOc1ccc(CN(C)C(=O)CCc2ccc(S(=O)(=O)N3CCCCCC3)cc2)cc1 | active: 3.98 µM
33 | CCc1cc2c(SCC(=O)Nc3cc(C)on3)ncnc2s1 | inconclusive [inhibitor, partial curve]
34 | CC(C)(C)OC(=O)C[C@H]1C/C=C\C[C@@H](CC(=O)NCCO)C(=O)N[C@H](Cc2ccccc2)COC1=O | inactive
35 | Cc1ccc(C)c(NC(=S)NCc2cccs2)c1 | inconclusive [inhibitor, full curve, poor fit]
36 | CC1CCCN(c2nc3c(c(=O)n(C)c(=O)n3C)n2CCSc2nc3ccccc3s2)C1 (stereo not given) | inconclusive [inhibitor, single point]
37 | CCOC(=O)C1(CCOc2ccccc2)CCN(Cc2ccncc2)CC1 | inconclusive [inhibitor, single point]
38 | CCCOc1ccc(-c2c(C(=O)N/N=C/c3cccs3)nnn2-c2nonc2N)cc1 | inactive
39 | CN(Cc1ccc(OC(F)F)cc1)C(=O)c1ccc(S(=O)(=O)N(C)c2ccccc2)cc1 | inconclusive [inhibitor, partial curve]
40 | CC(C)c1nc(-c2c(N)n(C)c(=O)n(C)c2=O)sc1C(=O)C(C)(C)C | inconclusive [inhibitor, single point]
41 | Cc1ccc([N+](=O)[O-])cc1NC(=O)CN(C1CCCCC1)S(=O)(=O)c1ccc(Cl)cc1 | inconclusive [inhibitor, single point]
42 | COC(=O)c1ccc(OCC2c3cc(OC)c(OC)cc3CCN2C(=O)c2ccco2)cc1 (stereo not given) | inconclusive [inhibitor, partial curve]
43 | CCOc1ccc(C(=O)NCC(=O)OCCCC(=O)c2ccc(F)cc2)cc1OCC | inconclusive [inhibitor, single point]
44 | CN(C)C(=O)CSc1nc2ccccc2c(=O)[nH]1 | inactive
45 | O=c1c2ccccc2[nH]c(=S)n1CCCN1CCN(c2ccccc2F)CC1 | inconclusive [inhibitor, single point]
